From PubChem BioAssay AID1345083 (National Center for Advancing Translational Sciences (NCATS), 2018)
About 6,200 (6.6%) of roughly 94,000 compounds were called active. The inconclusive results got no clear call from the source; some entries with a clear call stand among them for comparison. Calls come from the whole dose curve; as a rule, active = well fitted inhibition curve with a large enough effect; inconclusive = small, poorly fitted or top-dose-only effect; inactive = flat fitted curve, though single readings scatter. Where the call is inconclusive, the potency comes from a doubtful curve fit.

assay: Cytotoxic Profiling in HEK 293 Cell Line of Diverse Libraries Using Quantitative High-Throughput Screening; details: HEK 293 viability, ATP luminescence (CellTiter-Glo), 48-72 h; series mostly up to 115 µM; note: nearly all actives have a fitted effect of over 60% in size
Procedure, shortened: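 Read-out: CellTiter-Glo ATP luminescence. Cells: HEK 293, 250 cells/well. Exposure: 48 or 72 hr, 37 degree Celsius.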
Potency is the fitted concentration of half-maximal effect; tags give direction and shape of the fitted curve.

Row | Structure (SMILES) | Potency
1 | CCCNC(=O)OC[C@H]1C[C@@H]2CCN1C[C@@H]2c1cc(-c2ccccc2OC)nc(C)n1 | inconclusive: 89.1 µM [inhibitor, partial curve, poor fit]
2 | CC(C)CN(Cc1cccnc1)C1CN(C(=O)Cc2cccc(F)c2)C1 | inconclusive: 50.1 µM [inhibitor, partial curve, poor fit]
3 | NCc1cn(C[C@H]2CC3CCN2C[C@@H]3C(=O)N2CCCC2)nn1 (stereo partly specified) | inconclusive: 63.1 µM [inhibitor, partial curve, poor fit]
4 | CC[C@H]1CN2CC[C@H]1C[C@@H]2CNCc1ccc(C(F)(F)F)cc1 | inconclusive: 100 µM [inhibitor, partial curve, poor fit]
5 | O=C1Nc2ccccc2C12CCN(Cc1ccc(C(F)(F)F)cc1)CC2 | inconclusive: 50.1 µM [inhibitor, partial curve, poor fit]
6 | COc1ccc2c(c1)C1(CCN(C(=O)c3cccc(F)c3)C1)C(=O)N2C (stereo unspecified) | inconclusive: 39.8 µM [inhibitor, full curve, poor fit]
7 | Cc1[nH]cnc1-c1nccn1CCc1c[nH]c(=O)[nH]c1=O | inactive
8 | COc1cc2c(cc1OCC1CC1)NC(=O)C21CCN(C(=O)c2cccnc2)CC1 | inactive
9 | O=C1NCCCCCN(Cc2ccccn2)[C@H]2CCC[C@@H]12 | inconclusive: 22.4 µM [inhibitor, full curve]
10 | CC[C@H]1CN2CC[C@H]1C[C@@H]2CNC(=O)c1cccc(F)c1 | inconclusive: 141 µM [inhibitor, single point]
11 | N#Cc1ccc(CN2CCC3(CC2)C(=O)Nc2ccccc23)cc1 | inconclusive: 56.2 µM [inhibitor, partial curve, poor fit]
12 | CN(Cc1ccccc1)C[C@H]1CN2CC[C@H]1C[C@@H]2CNC(=O)Nc1ccsc1 | inconclusive: 112 µM [inhibitor, partial curve]
13 | O=C1CO[C@H]2CN(Cc3ccccn3)C[C@H]2N1Cc1ccccn1 | inconclusive: 126 µM [inhibitor, single point]
14 | CCOC(=O)[C@H]1CN(C(=O)CC(C)(C)C)[C@]2(C)C(=O)N(CC3CC3)c3ccccc3[C@H]12 | inconclusive: 35.5 µM [inhibitor, partial curve, poor fit]
15 | Cn1cccc1CN1CCCC2(CC(c3ccccn3)=NO2)C1 (stereo unspecified) | inconclusive: 89.1 µM [inhibitor, partial curve, poor fit]
16 | CCOC(=O)[C@H]1CN(C(=O)c2ccc3c(c2)OCO3)[C@]2(C)C(=O)N(CCOC)c3ccccc3[C@H]12 | inactive
17 | COc1cc2c(cc1OCC1CC1)NC(=O)C21CCN(C(=O)c2ccccc2)CC1 | inconclusive: 100 µM [inhibitor, partial curve, poor fit]
18 | C#C[C@H]1CN2CC[C@H]1C[C@@H]2COC(=O)Nc1ccc(C(C)(C)C)cc1 | inconclusive: 126 µM [inhibitor, partial curve, poor fit]
19 | C=C[C@H]1CN2CC[C@H]1C[C@@H]2CNC(=O)Nc1ccc(Br)cc1 | active: 56.2 µM
20 | CCOC(=O)[C@H]1CN(C(=O)Cc2ccccc2)[C@]2(C)C(=O)N(CC3CC3)c3ccccc3[C@H]12 | inconclusive: 50.1 µM [inhibitor, partial curve, poor fit]
21 | Cc1cc(C)cc(C(=O)N2CCC3(CC2)c2nccn2-c2ccccc2CN3C)c1 | inconclusive: 56.2 µM [inhibitor, partial curve, poor fit]

Row | Structure (SMILES) | Potency
22 | O=C1NCc2ccccc2CC12CCCN2Cc1cccc(Br)n1 (stereo unspecified) | inconclusive: 50.1 µM [inhibitor, partial curve, poor fit]
23 | O=C(c1ccncc1)N1C[C@@H]2C[C@H](C1)c1ccc(C3CCCCC3)c(=O)n1C2 | inactive
24 | COc1cc2c(cc1OCc1ccccc1)N(C(=O)Cc1ccc3c(c1)OCO3)CC21CCN(C)CC1 | active: 79.4 µM
25 | Cn1nc(C2CCCC2)cc1[C@H]1CN2CC[C@H]1C[C@@H]2CNC(=O)c1cccs1 | inconclusive: 70.8 µM [inhibitor, partial curve, poor fit]
26 | Cc1ccc([C@@H]2CN(C(=O)c3snnc3C)[C@@H]3C4CCN(CC4)[C@@H]32)cc1 | inactive
27 | Cc1nc(-c2cccs2)cc([C@H]2CN3CC[C@H]2C[C@@H]3CNC(=O)C(C)(C)C)n1 | inconclusive: 112 µM [inhibitor, partial curve, poor fit]
28 | N#Cc1ccc(C(=O)N2C[C@@H]3C[C@H](C2)c2c(-c4cncnc4)ccc(=O)n2C3)cc1 | inactive
29 | CSc1cccc(NC(=O)NC[C@H]2C[C@@H]3CCN2C[C@@H]3CN2CCN(c3ncccn3)CC2)c1 | inconclusive: 50.1 µM [inhibitor, partial curve, poor fit]
30 | CN1CCN(C(=O)Cc2c[nH]c3ncc(-c4ccc5c(c4)OCO5)cc23)CC1 | inconclusive: 112 µM [inhibitor, partial curve]
31 | O=C(c1ccccc1)N1C[C@@H]2C[C@H](C1)c1ccc(-c3cncnc3)c(=O)n1C2 | inactive
32 | CC(=O)N1CCC2(C1)N=C(c1cccnc1)C(=O)N2 (stereo unspecified) | inactive
33 | Cc1ccncc1C(=O)N1[C@H]2CC[C@@H]1c1cnc(-c3ccccc3)nc1C2 | inconclusive: 25.1 µM [inhibitor, partial curve]
34 | COc1ccc(NC(=O)NC[C@H]2C[C@@H]3CCN2C[C@@H]3CN2CCN(c3ncccn3)CC2)cc1 | inactive
35 | COc1ccc(-c2cn(C[C@H]3C[C@@H]4CCN3C[C@@H]4C(=O)N(C)C)nn2)cc1 | inactive
36 | COc1cc2c(cc1Oc1ccccc1)NC(=O)C21CCN(c2ccnc(C)n2)CC1 | active: 63.1 µM
37 | C=C[C@H]1CN2CC[C@H]1C[C@@H]2CNC(=O)Nc1ccc(Oc2ccccc2)cc1 | active: 100 µM
38 | COCCC(=O)N1[C@H]2CC[C@@H]1c1cnc(-c3ccc(F)cc3)nc1C2 | inconclusive: 89.1 µM [inhibitor, single point]
39 | Cn1nc(-c2ccccc2)cc1[C@H]1CN2CC[C@H]1C[C@@H]2CNC(=O)NCc1ccccc1 | inconclusive: 89.1 µM [inhibitor, partial curve, poor fit]
40 | Cn1nc(-c2ccccc2)cc1[C@H]1CN2CC[C@H]1C[C@@H]2CNS(=O)(=O)c1cccs1 | inconclusive: 100 µM [inhibitor, partial curve, poor fit]
41 | COc1cc2c(cc1Oc1cccc(N(C)C)c1)NC(=O)C21CCN(Cc2cccc(O)c2)CC1 | active: 25.1 µM
42 | COc1cc2c(cc1Oc1ccccc1)NC(=O)C21CCN(c2ncc(C(C)C)cn2)CC1 | inconclusive: 50.1 µM [inhibitor, partial curve, poor fit]

Row | Structure (SMILES) | Potency
43 | Cc1nc(-c2cccs2)cc([C@H]2CN3CC[C@H]2C[C@@H]3CNC(=O)CSCC(=O)O)n1 | inactive
44 | COc1cc2c(cc1OCc1ccccc1)NC(=O)C21CCN(Cc2ccccn2)CC1 | active: 79.4 µM
45 | COc1ccc(CC(=O)N2[C@H]3CC[C@@H]2c2cnc(-c4ccc(F)cc4)nc2C3)cc1OC | active: 79.4 µM
46 | O=C(O)C1=NOC2CN(Cc3cccc(Br)n3)CC12 (stereo unspecified) | inactive
47 | COc1ccc(-c2cn(C[C@H]3CC4CCN3C[C@@H]4C(=O)NCc3ccc4c(c3)OCO4)nn2)cc1 (stereo partly specified) | inconclusive: 79.4 µM [inhibitor, single point]
48 | O=C(Nc1ccc(=O)n2c1[C@@H]1C[C@@H](CN(C(=O)c3ccc(F)cc3)C1)C2)C1CCCCC1 | inactive
49 | O=c1cccc2n1C[C@H]1C[C@@H]2CN(C[C@H]2CN3CC[C@H]2C[C@@H]3CNS(=O)(=O)c2cccs2)C1 | inconclusive: 100 µM [inhibitor, single point]
50 | COc1cc2c(cc1OC1CCCC1)NC(=O)C21CCN(c2cc(NC3CC3)ncn2)CC1 | inconclusive: 50.1 µM [inhibitor, partial curve, poor fit]
51 | CN1CCN(C(=O)Cc2c[nH]c3ncc(-c4cccc(OC(F)(F)F)c4)cc23)CC1 | inconclusive: 100 µM [inhibitor, partial curve, poor fit]
52 | O=S(=O)(c1cccnc1)N1[C@H]2CC[C@@H]1c1cnc(-c3ccc(F)cc3)nc1C2 | inconclusive: 50.1 µM [inhibitor, partial curve, poor fit]
53 | CCCCOC(=O)N1C[C@H](C(=O)OCC)[C@H]2c3ccccc3N(CCOC)C(=O)[C@]21C | inconclusive: 31.6 µM [inhibitor, partial curve, poor fit]
54 | Cn1nc(-c2cccs2)cc1[C@H]1CN2CC[C@H]1C[C@@H]2COC(=O)Nc1cccc(C(F)(F)F)c1 | inactive
55 | O=C(c1ccncc1)N1CC2CCC(C1)N2Cc1ccc(Cl)cc1 | inconclusive: 70.8 µM [inhibitor, partial curve, poor fit]
56 | c1ccc(CCCN2CCC3(CCNCC3)C2)cc1 | inconclusive: 50.1 µM [inhibitor, partial curve, poor fit]
57 | O=C(Cc1ccccc1Cl)N1CCN(C2CCN(CCc3ccccc3)C2=O)CC1 (stereo unspecified) | inconclusive: 89.1 µM [inhibitor, single point]
58 | c1ccc(CN2CCOC[C@H]3CCNC[C@H]32)cc1 | inactive
59 | Cc1ncc2c(n1)C[C@@H]1CC[C@H]2N1S(=O)(=O)Cc1ccccc1 | inactive
60 | Cc1nc(-c2ccccc2Br)cc([C@H]2CN3CC[C@H]2C[C@@H]3CNS(=O)(=O)c2cccs2)n1 | active: 79.4 µM
61 | COc1ccc2c(C)c(C(=O)N3CCC(C#N)(c4ccccc4)CC3)oc2c1 | inconclusive: 89.1 µM [inhibitor, partial curve, poor fit]
